Experimental data reported in PubChem BioAssay AID2451 (National Center for Advancing Translational Sciences (NCATS), 2010).
Screen size: about 290,000 compounds; about 2,100 (0.72%) were called active. The inconclusive results got no clear call from the source; some entries with a clear call stand among them for comparison. The call rests on the fitted dose curve; in most records, active means well fitted inhibition curve with a large enough effect; inconclusive means small, poorly fitted or top-dose-only effect, or effect the other way; inactive means flat fitted curve, though single readings scatter. Potencies of inconclusive entries are doubtful fits and often do not repeat.
Further: nearly all actives have a fitted effect of over 55% in size.
On the % scale 0 is the no-effect control and ±100 the full control effect; potency means the concentration at half of the fitted maximal effect; tags describe the fitted curve by direction and shape.

What follows are compounds tested against Fructose-bisphosphate aldolase (Giardia intestinalis (strain ATCC 50803 / WB clone C6)) (UniProt A8B2U2) (assay: qHTS Assay for Inhibitors of Fructose-1,6-bisphosphate Aldolase from Giardia Lamblia). Settings: purified Giardia FBPA; activity, negative = inhibition: at 59.6 µM (top of the series) unless noted.
UniProt A8B2U2, sequence (A8B2U2 whole entry, looked up): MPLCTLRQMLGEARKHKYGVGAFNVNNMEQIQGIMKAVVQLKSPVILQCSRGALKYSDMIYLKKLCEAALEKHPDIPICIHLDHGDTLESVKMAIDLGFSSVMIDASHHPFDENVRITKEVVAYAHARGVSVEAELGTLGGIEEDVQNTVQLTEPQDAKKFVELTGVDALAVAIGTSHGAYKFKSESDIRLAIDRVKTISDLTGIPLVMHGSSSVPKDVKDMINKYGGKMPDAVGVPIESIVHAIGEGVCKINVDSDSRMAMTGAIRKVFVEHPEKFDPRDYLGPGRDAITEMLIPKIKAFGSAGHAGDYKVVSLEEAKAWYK
Procedure, shortened: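 Giardia FBPA (40 nM reagent) was preincubated 10 min at RT with compound (up to 57.5 uM final), then substrate plus GAPDH/TPI/NAD/arsenate coupling system with diaphorase/resazurin was added; resorufin fluorescence (525/598 nm) was read after 20 min.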
For `O=C(CC1C(=O)NCCN1Cc1ccc(-c2ccccc2)cc1)NC1CCC1` (stereo not drawn), the “activity, negative = inhibition” value was inactive: -11.5%. For `O=C1C(NS(=O)(=O)c2cccs2)=C(N2CCN(c3ccccc3)CC2)C(=O)c2ccccc21`, the Potency was inconclusive: 5.61 µM [inhibitor, partial curve]. In the case of `O=c1c2ccccc2nnn1COc1cccc2ccccc12`, the Potency was inconclusive: 31.5 µM [inhibitor, single point]. With `Cc1cc(NC(=O)CCC(=O)N(c2ccccc2C)C(C(=O)NC2CCCC2)c2ccccc2)no1` (stereo not drawn) the “activity, negative = inhibition” value was inactive: 7.75%. `O=C(Nc1ccccc1C(F)(F)F)c1ccc(F)c(S(=O)(=O)N2CCOCC2)c1` was tested, and the “activity, negative = inhibition” value was inactive: 0.0611%. `c1ccc2c(c1)ncn2CCCCOc1ccc2c(c1)CCC2` was tested, and the Potency was inconclusive: 14.1 µM [inhibitor, partial curve]. For `CCN(c1ccccc1)S(=O)(=O)c1ccc(OC)c(NC(=O)CN(C)C)c1`, the Potency was inconclusive: 12.6 µM [inhibitor, partial curve]. `Cc1cccc(NS(=O)(=O)c2ccc([N+](=O)[O-])cc2)n1` was tested, and the Potency was inconclusive: 28.2 µM [inhibitor, single point]. `CNCCCOc1ccc(C(C)(C)c2ccccc2)cc1` was tested, and the Potency was inconclusive: 17.7 µM [inhibitor, single point]. `CC(SCC(=O)Nc1ccccc1)c1nc2ccccc2c(=O)[nH]1` (stereo not drawn) was tested, and the Potency was inconclusive: 25.1 µM [inhibitor, single point]. For `Cn1c(=O)c2c(nc(N/N=C/c3ccco3)n2C)n(C)c1=O`, the Potency was inconclusive: 3.54 µM [inhibitor, full curve, poor fit]. With `CCc1nn(CC(=O)NCCCN2CCc3ccccc3C2)c(=O)c2cc3sccc3n12` the Potency was inconclusive: 22.3 µM [inhibitor, single point]. In the case of `CC(=O)N1CCn2c3c(c(=O)c4cc(C)ccc42)CCC31` (stereo not drawn), the Potency was inconclusive: 15.8 µM [inhibitor, single point]. With `CCOc1cc(N2CCOCC2)c(OCC)cc1NC(=O)c1ccc(C)cc1` the Potency was inconclusive: 19.9 µM [inhibitor, partial curve]. In the case of `CC1(C)CN=C(Nc2ccccc2C(F)(F)F)S1`, the “activity, negative = inhibition” value was inactive: 7.11%. For `O=C1C2C3C=CC(C3)C2C(=O)N1/N=C/c1ccc(-c2ccccc2[N+](=O)[O-])o1` (stereo not drawn), the Potency was inconclusive: 8.89 µM [inhibitor, partial curve]. `Cc1cccc(C)c1OCCN1CCCC1` was tested, and the Potency was inconclusive: 12.6 µM [inhibitor, partial curve]. With `Cn1c(N2CCCCC2)nc2c1c(=O)[nH]c(=O)n2C` the “activity, negative = inhibition” value was inactive: -0.217%. For `COc1cc(/C=C2\SC(c3ccc(C)cc3)=NC2=O)cc(OC)c1OC`, the Potency was inconclusive: 20 µM [inhibitor, partial curve]. For `Nn1cnnc1N/N=C/c1ccc(Cl)c([N+](=O)[O-])c1`, the Potency was active: 12.6 µM. `COC(=O)c1ccc(-c2noc(CN(C)CCC3CCCCO3)n2)cc1` (stereo not drawn) was tested, and the Potency was active: 17.7 µM. `O=c1cc(-c2ccc(Cl)cc2)[nH]c2ccccc12` was tested, and the “activity, negative = inhibition” value was inactive: 0.851%. With `CC1COC2=C1C(=O)C(=O)c1c2ccc2c1CCCC2(C)C` (stereo not drawn) the Potency was active: 1.58 µM. `O=C(Nc1cccc(C(F)(F)F)c1)c1scc2c1OCCO2` was tested, and the “activity, negative = inhibition” value was inactive: 1.5%. `Cc1cc(C)c(C)c(OCCn2ccnc2)c1` was tested, and the Potency was inconclusive: 35.5 µM [inhibitor, single point]. `N#CC1=C2SCN(Cc3ccccc3)CN2C(=O)CC1c1cccs1` (stereo not drawn) was tested, and the Potency was inconclusive: 0.889 µM [inhibitor, full curve]. `CCCNc1ccc(C(=O)OCC)cc1[N+](=O)[O-]` was tested, and the “activity, negative = inhibition” value was inactive: 4.49%. `CC1=C(C(=O)OCC2CCCO2)C(c2ccccc2OC(C)C)C2=C(CC(c3ccco3)CC2=O)N1` (stereo not drawn) was tested, and the “activity, negative = inhibition” value was inactive: -2.98%. In the case of `CCN1CCN(C(=S)c2ccc(Cl)cc2)CC1`, the Potency was active: 3.97 µM. `CN(C)CCOCCSc1ccc(Cl)cc1` was tested, and the Potency was inconclusive: 22.3 µM [inhibitor, partial curve]. `COC(=O)c1c(NC(=O)CN2CCC3(O)CCCCC3C2c2ccc(OC)cc2OC)sc(C)c1C` (stereo not drawn) was tested, and the Potency was inconclusive: 22.3 µM [inhibitor, single point]. For `O=C(NCCc1ccccc1)c1cccc(Br)c1`, the “activity, negative = inhibition” value was inactive: -9.54%. `O=S(=O)(c1ccc2ccccc2c1)N1CCN(C2CCN(Cc3ccccc3)CC2)CC1` was tested, and the Potency was inconclusive: 17.7 µM [inhibitor, partial curve]. `COC(=O)c1cccc(NC(=O)c2cccnc2C(=O)O)c1C` was tested, and the Potency was inconclusive: 4.46 µM [inhibitor, full curve]. `CCOC(=O)/C(C#N)=C/c1cc(C)n(-c2ccc(Br)cc2)c1C` was tested, and the “activity, negative = inhibition” value was inactive: 0.429%. With `CN(C)S(=O)(=O)c1cccc(-n2sc3ccccc3c2=O)c1` the Potency was active: 14.1 µM. For `CCNc1c(NC(=O)c2ccc3c(c2)OCO3)c(=O)oc2ccccc12`, the “activity, negative = inhibition” value was inactive: -5.34%. `Cc1cccc(-c2ocnc2C(=O)Nc2ccccc2NC(=O)c2ccccn2)c1` was tested, and the “activity, negative = inhibition” value was inactive: 19.2%. For `COc1ccc(CCN(Cc2ccccn2)C(=S)Nc2cccc(SC)c2)cc1OC`, the Potency was active: 9.98 µM. `COc1ccc(CNc2ccc3cn[nH]c3c2)c(OC)c1OC` was tested, and the Potency was inconclusive: 15.8 µM [inhibitor, partial curve]. In the case of `CN1C(=O)c2cccc3c(S(=O)(=O)Nc4ccccn4)ccc1c23`, the Potency was inconclusive: 17.7 µM [inhibitor, partial curve]. In the case of `O=C(O)CCCCn1c(SCc2ccccc2Cl)nc2ccsc2c1=O`, the Potency was inconclusive: 22.3 µM [activator, partial curve]. `Cc1ccc2c(c1)c1ccc3c(c1n2C)C(=O)C=CC3=O` was tested, and the Potency was inconclusive: 3.97 µM [inhibitor, full curve, poor fit]. For `CCCCC1=CC2=CC(=O)C(C)(OC(=O)CC)C(=O)C2=CN1c1ccccc1` (stereo not drawn), the Potency was inconclusive: 1.58 µM [inhibitor, partial curve, poor fit]. With `CCCCN1C(=O)CCC(C(=O)O)C1c1ccc([N+](=O)[O-])cc1` (stereo not drawn) the “activity, negative = inhibition” value was inactive: 8.14%. For `CC(C)(C)C1(O)CC(C(F)(F)F)=NN1C(=O)CCCc1ccccc1` (stereo not drawn), the “activity, negative = inhibition” value was inactive: 0.28%. `Cc1ccc(N2C(=O)NC(=O)/C(=C\c3cc(C)n(-c4ccc(C(=O)O)cc4)c3C)C2=O)cc1` was tested, and the “activity, negative = inhibition” value was inactive: -5.36%. With `CCOC(=O)N1CCC(NCCNC(=O)c2ccco2)CC1` the Potency was inconclusive: 9.98 µM [inhibitor, partial curve].
